# Out of some 120,000 compounds screened, about 5,300 (4.4%) were called active. Inconclusive results, whose numbers are uncertain, are shown with a selection of clear calls. Calls follow the shape of the dose curve; as a rule, active = well fitted inhibition curve with a large enough effect; inconclusive = small, poorly fitted or top-dose-only effect; inactive = no such curve, though single readings can be large or run the other way. Potencies of inconclusive entries are doubtful fits and often do not repeat.
# Test: qHTS Primary assay for Inhibitors of Plasmodium falciparum Dd2 growth in vitro; also: nearly all actives have a fitted effect of over 65% in size
# Settings: P. falciparum Dd2 growth, SYBR Green, 72 h; series mostly up to 28.9 µM
# Procedure, shortened: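 Readout: SYBR Green fluorescence, 485 nm excitation, 535 nm emission, after ~16 h lysis at 37C. Before that, Dd2-infected red cells (2.5% hematocrit) grew 72 h with compound, 29 uM top final concentration.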
# Potency is read from the fitted curve at half-maximal effect; tags tell the direction and shape of the fitted curve.
row,SMILES,Potency
1,CCOC(=O)c1c(Nc2ccccc2)nnc(-c2ccccc2)c1-c1ccccc1,"inconclusive: 17.8 µM [inhibitor, single point]"
2,O=C1CCN(C(=O)COc2ccc(F)cc2)CCCC(c2nc(-c3cnccn3)no2)CCN1 (stereo not given),"inconclusive: 1.12 µM [inhibitor, partial curve, poor fit]"
3,CC(C)(C)OC(=O)N1CCC(c2c(C(=O)NCCN3CCOCC3)cnn2-c2ccccc2)CC1,"inconclusive: 1.58 µM [inhibitor, single point]"
4,CC(C)NS(=O)(=O)c1ccc2c(c1)nc(-c1ccc(-c3ccn[nH]3)o1)n2C(C)C,"inconclusive: 14.1 µM [inhibitor, partial curve, poor fit]"
5,COc1ccc2c(C)cc(SCC(=O)Nc3nsc(-c4ccc(C(C)(C)C)cc4)n3)nc2c1,"inconclusive: 11.2 µM [inhibitor, single point]"
6,Cc1ccc(-c2nnc(C3CN(C(=O)c4ccc(Cl)s4)CC34CCOCC4)o2)cc1 (stereo not given),"inconclusive: 7.08 µM [inhibitor, partial curve, poor fit]"
7,O=C(CCC1CCCC1)NCCC1CCN(C(=O)Nc2cccc(F)c2)CC1,inactive
8,CCc1nc2c(c(-c3ccc(OC)cc3)n1)CCN(Cc1ccccc1)CC2,"inconclusive: 10 µM [inhibitor, partial curve]"
9,COc1ccc(-c2cc3c(=O)n(CCNC(=O)c4ccccc4C)ccn3n2)cc1,"inconclusive: 1.58 µM [inhibitor, partial curve]"
10,CC(=O)Nc1cccc(OCC2CN(Cc3cccc(C(F)(F)F)c3)C(=O)c3c(ccnc3-c3ccc(OCC(=O)O)cc3)O2)c1 (stereo not given),"inconclusive: 7.94 µM [inhibitor, single point]"
11,Cc1cc(-c2nc3ncccc3o2)ccc1NC(=O)COc1ccc(C(C)(C)C)cc1,"inconclusive: 17.8 µM [inhibitor, single point]"
12,COc1ccc(C(=O)N2CC(c3nnc(-c4ccc(C)cc4)o3)C3(CCOCC3)C2)c(C)c1 (stereo not given),"inconclusive: 17.8 µM [inhibitor, single point]"
13,COc1cccc(CNC(=O)[C@@H]2C[C@@H](O)CN2C2CCN(C(=O)CCc3ccccc3)CC2)c1,inactive
14,COC[C@H]1CCCN1Cc1nc(C2(O)CCN(C(C)C)CC2)cs1,"inconclusive: 28.2 µM [inhibitor, partial curve, poor fit]"
15,O=C1Nc2ccc(/C=C/c3ccccc3)cc2C(=O)N2C[C@H](O)C[C@@H]12,inactive
16,CCc1ccc(-n2c(=O)c3cccnc3n2CC(=O)N(CC)c2cccc(C)c2)cc1,"inconclusive: 10 µM [inhibitor, single point]"
17,COCCN1C(=O)[C@H]2CN(Cc3ccc(C)c(C)c3)C[C@H]2C1=O,inactive
18,Cc1nc(CCNC(=O)CC(C)C)no1,inactive
19,COc1ccc(-c2noc([C@@H]3CCCN3C(=O)c3ccc(C)c(C)c3)n2)cc1,"inconclusive: 10 µM [inhibitor, single point]"
20,O=C(NCc1ccncc1)c1cn(C2CN(C(=O)Nc3ccccc3)C2)nn1,inactive
21,O=C(NCc1cc2ccc(F)cc2[nH]c1=O)C1CC2(CCNCC2)CN1 (stereo not given),inactive
22,CCOC(=O)c1ccc(N2C(=O)c3n[nH]c(-c4cccs4)c3C2c2ccc(O)c(OC)c2)cc1 (stereo not given),inactive

row,SMILES,Potency
1,O=C(Nc1nc2n(n1)C(c1ccc(F)cc1)C=C(c1ccc(Cl)cc1)N2)c1ccco1 (stereo not given),active: 8.91 µM
2,Cc1ccccc1CC(=O)N1CCN(C(=O)c2nnn3c2COC(c2ccc(Cl)cc2)C3)CC1 (stereo not given),inactive
3,CCOc1ccc2oc(=O)cc(CN3CCN(c4ccc(OC)cc4)CC3)c2c1,"inconclusive: 17.8 µM [inhibitor, single point]"
4,CCN(C(=O)c1cc2c(s1)-c1c(C)cccc1OC2)c1cc(C)ccc1C,"inconclusive: 17.8 µM [inhibitor, single point]"
5,O=C(C1CC1)N1CC2(CCCN2Cc2cccnc2)Cc2ccccc21 (stereo not given),active: 10 µM
6,COCCN1CCCCCC(O)c2cc(C(=O)Nc3ccc(C)cc3)ccc21 (stereo not given),inactive
7,Cc1cn2nc(C(=O)N3CCN(c4ccccc4F)CC3)cc2c(N2CCCC2)n1,inactive
8,O=C1CCN(C(=O)[C@@H]2CCCN2)CCCCCCN1,inactive
9,CCn1cc(CN2CC[C@H]3C(=O)NCCCCCCN(Cc4ccncc4)[C@@H]3C2)c(C)n1,inactive
10,COc1cc(NC(=O)c2cc(-c3ccccc3O)no2)cc(OC)c1OC,"inconclusive: 17.8 µM [inhibitor, single point]"
11,CCOc1ccc(CNC(=O)C2CCN(C3=NS(=O)(=O)C(c4ccc(C)cc4)=C3CC)CC2)cc1,"inconclusive: 10 µM [inhibitor, single point]"
12,Cc1cc(C)n2nc(C(=O)N3CCCC4(CNC(=O)O4)C3)cc2n1 (stereo not given),"inconclusive: 3.55 µM [inhibitor, partial curve, poor fit]"
13,CCCS(=O)(=O)N1CCc2nn(C)c(=O)n2CC1,inactive
14,CCc1ccccc1N1CC(c2nnc(NC(=O)c3ccco3)s2)CC1=O (stereo not given),"inconclusive: 7.08 µM [inhibitor, partial curve]"
15,CCc1noc(-c2cccn3c(CNC(=O)c4c(F)cccc4Cl)nnc23)n1,"inconclusive: 7.08 µM [inhibitor, partial curve, poor fit]"
16,Cn1c(C(=O)N2CCNc3cnc(Nc4ccccc4)nc3C2)cc2ccccc21,"inconclusive: 3.16 µM [inhibitor, full curve]"
17,Cc1cccc(C(=O)N2CCC(C(NC(=O)c3ccccc3)C(=O)N3CCCCC3)CC2)c1 (stereo not given),active: 11.2 µM
18,COc1ccccc1NC(=O)Nc1cccc(-c2ccc(N3CCCCC3)nn2)c1,"inconclusive: 17.8 µM [inhibitor, single point]"
19,Cc1cnc(CCNC(=O)C2CCOCC2)n1C1CCCCCCC1,"inconclusive: 1.12 µM [inhibitor, partial curve]"
20,CC[C@H]1CN2CC[C@H]1C[C@@H]2CNC(=O)c1cccc(F)c1,"inconclusive: 8.91 µM [inhibitor, single point]"
21,CC(C)N1C(=O)C2(CCCCC2)C1C(=O)NCCCN1CCCc2ccccc21 (stereo not given),"inconclusive: 17.8 µM [inhibitor, single point]"
22,Cc1cc(S(=O)(=O)Nc2cc3c(cc2N2CCOCC2)n(C)c(=O)n3C)ccc1F,"inconclusive: 10 µM [inhibitor, single point]"

row,SMILES,Potency
1,O=C(CCn1ccn2nc3c(c2c1=O)CCCC3)NC1CCCC1,"inconclusive: 10 µM [inhibitor, single point]"
2,CCc1nnc2ccc(NCc3ccc(F)cc3)nn12,active: 7.08 µM
3,O=C(C1CC1)N1CCOc2ccc(CN3CCc4ccccc4C3)cc2C1,"inconclusive: 7.08 µM [inhibitor, single point]"
4,O=C(CCc1ccccc1)Nc1cnc(-c2cccnc2)nc1,"inconclusive: 2.24 µM [inhibitor, partial curve, poor fit]"
5,Cn1cc(C(=O)NCC2CN(Cc3cccc(OC(F)(F)F)c3)CC23CN(c2ccccc2)C3)cn1 (stereo not given),"inconclusive: 11.2 µM [inhibitor, single point]"
6,Cc1ccc(-n2c(SCc3ccccc3F)nc3[nH]ncc3c2=O)cc1C,"inconclusive: 11.2 µM [inhibitor, single point]"
7,COc1cccc(-c2cc(C(F)(F)F)nc(-n3nc(C)c(Br)c3C)n2)c1,"inconclusive: 17.8 µM [inhibitor, single point]"
8,COc1ccc(CC(=O)N2CCC(Oc3nccnc3N(C)C)C2)cc1 (stereo not given),"inconclusive: 17.8 µM [inhibitor, single point]"
9,COc1ccc(C(=O)NCC(c2cccnc2)N2CCN(c3ccc(F)cc3)CC2)cc1 (stereo not given),"inconclusive: 11.2 µM [inhibitor, single point]"
10,Cn1cccc1CN1C[C@@H](CO)[C@H](NC(=O)c2ccccc2)C1,"inconclusive: 12.6 µM [inhibitor, single point]"
11,O=C1NCc2ccccc2CC12CCCN(Cc1ccc(F)cc1O)C2 (stereo not given),active: 4.47 µM
12,Cc1cccc(CNC(=O)c2ccc(OC3CCN(CCc4ccccc4)CC3)cc2)n1,"inconclusive: 10 µM [inhibitor, single point]"
13,CCOC(=O)N1CCc2c(sc3c2c(=O)n(Cc2ccccc2)c(=O)n3CC(=O)Nc2c(C)cccc2C)C1,"inconclusive: 3.55 µM [inhibitor, single point]"
14,CN(C)CCNC(=O)c1cc(-c2ccccc2F)cc2c1OCCN2Cc1cccnc1,"inconclusive: 1.26 µM [inhibitor, full curve, poor fit]"
15,O=C(c1cc2cc(F)ccc2[nH]1)N1CCCC(CO)(Cc2cccc(Cl)c2)C1 (stereo not given),"inconclusive: 17.8 µM [inhibitor, single point]"
16,Cc1cc(=O)n(CC(=O)Nc2ccccc2)c(-c2ccc(F)cc2)n1,"inconclusive: 8.91 µM [inhibitor, single point]"
17,Cn1ccnc1CN1CCN(CC2(O)CNCCOC2)CC1 (stereo not given),inactive
18,F[C@@H]1CN(CC2CC2)C[C@@H]1OCc1nc2ccccc2o1,"inconclusive: 0.891 µM [inhibitor, full curve]"
19,O=C(NCCc1ccc(Cl)cc1)c1cccn1-c1nnc(N2CCCCC2)s1,inactive
20,COc1ccc([C@H]2C[C@@H](O)[C@@H](O)[C@@H]2NCc2ccc(Cl)cc2)cc1,"inconclusive: 2.82 µM [inhibitor, single point]"
21,CN(C1CCCCC1)S(=O)(=O)c1ccc(C(=O)Nc2sc3c(c2C(N)=O)CC(C)(C)NC3(C)C)cc1,"inconclusive: 7.94 µM [inhibitor, partial curve]"
